The list shows a part of the results.
Key:
Assay in all cases: glycan array binding signal (z-score within array); higher = stronger binding
Conditions in all cases: glycan notation: IUPAC condensed, linker removed
[1] = molecular target: Neu5Ac(a2-3)Gal(b1-4)GlcNAc(b1-6)GalNAc
Procedure, shortened: (§1)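 The binding signal is a Z-score computed within each array and averaged over linkers. Arrays of the same protein sequence at different concentrations or buffers were also averaged together. Data originate from 3228 arrays in the Consortium for Functional Glycomics database, kept only where the protein sequence was available.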

[2] = molecular target: Neu5Ac(a2-3)Gal(b1-4)GlcNAc(b1-6)[Gal(b1-3)]GalNAc
Procedure, shortened: as §1

[3] = molecular target: Neu5Ac(a2-3)Gal(b1-4)GlcNAc(b1-6)[Neu5Ac(a2-3)Gal(b1-3)]GalNAc
Procedure, shortened: as §1

[4] = molecular target: Neu5Ac(a2-3)Gal(b1-4)GlcNAc6S
Procedure, shortened: as §1

[5] = molecular target: Neu5Ac(a2-3)Gal(b1-4)[Fuc(a1-3)]GlcNAc
Procedure, shortened: as §1

[6] = molecular target: Neu5Ac(a2-3)Gal(b1-4)[Fuc(a1-3)]GlcNAc(b1-2)Man
Procedure, shortened: as §1

[7] = molecular target: Neu5Ac(a2-3)Gal(b1-4)[Fuc(a1-3)]GlcNAc(b1-3)Gal
Procedure, shortened: as §1

[8] = molecular target: Neu5Ac(a2-3)Gal(b1-4)[Fuc(a1-3)]GlcNAc(b1-3)Gal(b1-4)GlcNAc
Procedure, shortened: as §1

[9] = molecular target: Neu5Ac(a2-3)Gal(b1-4)[Fuc(a1-3)]GlcNAc(b1-3)Gal(b1-4)[Fuc(a1-3)]GlcNAc(b1-3)Gal(b1-4)[Fuc(a1-3)]GlcNAc
Procedure, shortened: as §1

[10] = molecular target: Neu5Ac(a2-3)Gal(b1-4)[Fuc(a1-3)]GlcNAc(b1-3)GalNAc
Procedure, shortened: as §1

[11] = molecular target: Neu5Ac(a2-3)Gal(b1-4)[Fuc(a1-3)]GlcNAc(b1-6)[Gal(b1-3)]GalNAc
Procedure, shortened: as §1

[12] = molecular target: Neu5Ac(a2-3)Gal(b1-4)[Fuc(a1-3)]GlcNAc(b1-6)[Neu5Ac(a2-3)Gal(b1-3)]GalNAc
Procedure, shortened: as §1

[13] = molecular target: Neu5Ac(a2-3)Gal(b1-4)[Fuc(a1-3)]GlcNAc6S
Procedure, shortened: as §1

[14] = molecular target: Neu5Ac(a2-3)Gal6S(b1-4)GlcNAc
Procedure, shortened: as §1

[15] = molecular target: Neu5Ac(a2-3)Gal6S(b1-4)[Fuc(a1-3)]GlcNAc
Procedure, shortened: as §1

[16] = molecular target: Neu5Ac(a2-3)GalNAc
Procedure, shortened: as §1

[17] = molecular target: Neu5Ac(a2-3)GalNAc(b1-4)GlcNAc
Procedure, shortened: as §1

[18] = molecular target: Neu5Ac(a2-3)[GalNAc(b1-4)]Gal(b1-4)Glc
Procedure, shortened: as §1

[19] = molecular target: Neu5Ac(a2-3)[GalNAc(b1-4)]Gal(b1-4)GlcNAc
Procedure, shortened: as §1

[20] = molecular target: Neu5Ac(a2-3)[GalNAc(b1-4)]Gal(b1-4)GlcNAc(b1-3)GalNAc
Procedure, shortened: as §1

[21] = molecular target: Neu5Ac(a2-3)[Neu5Ac(a2-6)]GalNAc
Procedure, shortened: as §1

[22] = molecular target: Neu5Ac(a2-6)Gal
Procedure, shortened: as §1

[23] = molecular target: Neu5Ac(a2-6)Gal(b1-3)GlcNAc(b1-3)[Gal(b1-4)GlcNAc(b1-6)]Gal(b1-4)Glc
Procedure, shortened: as §1

[24] = molecular target: Neu5Ac(a2-6)Gal(b1-4)Glc
Procedure, shortened: as §1

[25] = molecular target: Neu5Ac(a2-6)Gal(b1-4)GlcNAc
Procedure, shortened: as §1

[26] = molecular target: Neu5Ac(a2-6)Gal(b1-4)GlcNAc(b1-2)Man
Procedure, shortened: as §1

[27] = molecular target: Neu5Ac(a2-6)Gal(b1-4)GlcNAc(b1-2)Man(a1-3)Man(b1-4)GlcNAc(b1-4)GlcNAc
Procedure, shortened: as §1

[28] = molecular target: Neu5Ac(a2-6)Gal(b1-4)GlcNAc(b1-2)Man(a1-3)[Gal(b1-4)GlcNAc(b1-2)Man(a1-6)]Man(b1-4)GlcNAc(b1-4)GlcNAc
Procedure, shortened: as §1

[29] = molecular target: Neu5Ac(a2-6)Gal(b1-4)GlcNAc(b1-2)Man(a1-3)[GlcNAc(b1-2)Man(a1-6)]Man(b1-4)GlcNAc(b1-4)GlcNAc
Procedure, shortened: as §1

[30] = molecular target: Neu5Ac(a2-6)Gal(b1-4)GlcNAc(b1-2)Man(a1-3)[GlcNAc(b1-4)][Neu5Ac(a2-6)Gal(b1-4)GlcNAc(b1-2)Man(a1-6)]Man(b1-4)GlcNAc(b1-4)GlcNAc
Procedure, shortened: as §1

[31] = molecular target: Neu5Ac(a2-6)Gal(b1-4)GlcNAc(b1-2)Man(a1-3)[Man(a1-6)]Man(b1-4)GlcNAc(b1-4)GlcNAc
Procedure, shortened: as §1

B1: GS13686A-pdi-553-26-553 (Parabacteroides distasonis) (protein)
chain: NENPDKPTDDVNYNMNEPRLASTLRGGLIIEGNVEQRLKPLQIDFYSQMTVDGGGWGTKNYIQDDEWNNLVWEEYLKQIASINIVIRSLTEKDKDAYANTIAFARIWRVYVHTLAADKFGPMPFPAYEIVEANPPYKSLKDIYDEYFRELDAAINGFNDSAQPIFSDAGIDLIYKNDVSKWKRFANSLRLRLAVRLTEVDQEKCIAEANAAISSPAGLISDKADNAYMPPKADGSWGQDYNYTMFQITWSGPICMSKSVEKLVTNIGGVAWPQGVVNQTSGVAVSSVHPEKVDPRAPKIFQPGIENGDWKGLVYGPKAEEANTGIYQSKQCAELGFIIKDGYPYKSRPYDLFLSEEVHFLKAELYARGFIAGDAKSEYEAGVRASFATWGVTSEVDDYLTSTEKNEAGTSARYDDQQGAGNTALEKIITQKYIAGIPDLAQEGWNDKRRLNLPRLDVAVYRDQAVYNNNDKDILKSANFIKRMRYPTKESLINATEYEKGKSMLGGKGDIVSTPLWWDKNSNYCTSSK
glycan array binding signal (z-score) [1]: -0.377
glycan array binding signal (z-score) [2]: 0.313
glycan array binding signal (z-score) [3]: -0.289
glycan array binding signal (z-score) [4]: -0.029
glycan array binding signal (z-score) [5]: -0.031
glycan array binding signal (z-score) [6]: -0.407
glycan array binding signal (z-score) [7]: -0.236
glycan array binding signal (z-score) [8]: 0.139
glycan array binding signal (z-score) [9]: -0.233
glycan array binding signal (z-score) [10]: 0.207
glycan array binding signal (z-score) [11]: 0.77
glycan array binding signal (z-score) [12]: 0.21
glycan array binding signal (z-score) [13]: -0.203
glycan array binding signal (z-score) [14]: -0.294
glycan array binding signal (z-score) [15]: -0.479
glycan array binding signal (z-score) [16]: -0.339
glycan array binding signal (z-score) [17]: 0.15
glycan array binding signal (z-score) [18]: 0.734
glycan array binding signal (z-score) [19]: -0.009
glycan array binding signal (z-score) [20]: -0.439
glycan array binding signal (z-score) [21]: -0.238
glycan array binding signal (z-score) [22]: -0.025
glycan array binding signal (z-score) [23]: 2
glycan array binding signal (z-score) [24]: -0.183
glycan array binding signal (z-score) [25]: -0.186
glycan array binding signal (z-score) [26]: -0.316
glycan array binding signal (z-score) [27]: 0.502
glycan array binding signal (z-score) [28]: 0.682
glycan array binding signal (z-score) [29]: -0.222
glycan array binding signal (z-score) [30]: -0.1
glycan array binding signal (z-score) [31]: 0.341

Reference: the supplement of paper PMC8728848
